Assay results reported in publication PMC10283290, “Expression and characterization of recombinant IL-1Ra in Aspergillus oryzae as a system” (BMC Biotechnology, 2023).

Biological target: T1, Recombinant human IL-1 RI protein (interleukin-1 receptor type 1) (human, UniProt P14778 18-336)
T1 construct: interleukin-1 receptor type 1, human, recombinant; No catalogue number is printed; the bought soluble protein is probably the extracellular domain, with or without a tag or Fc (surmise); In the functional rows this id stands for IL-1R1 on the surface of HEK-Blue IL-1β reporter cells; also called IL-1R1; source: bought: R&D Systems
T1 sequence (looked up): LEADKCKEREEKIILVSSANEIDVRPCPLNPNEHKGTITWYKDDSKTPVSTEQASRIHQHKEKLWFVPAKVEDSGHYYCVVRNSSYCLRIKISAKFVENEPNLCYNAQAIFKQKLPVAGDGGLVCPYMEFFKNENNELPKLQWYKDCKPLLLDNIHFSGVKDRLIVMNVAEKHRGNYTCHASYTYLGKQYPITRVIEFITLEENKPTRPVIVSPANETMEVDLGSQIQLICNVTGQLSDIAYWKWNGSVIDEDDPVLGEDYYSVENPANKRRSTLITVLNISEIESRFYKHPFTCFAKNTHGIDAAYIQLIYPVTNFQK
Assay: SPR; Biacore T200, CM5 chip; IL-1 RI immobilised by amine coupling to ~50 RU; analytes 0.04-5 nM Anakinra, 4-500 nM Asp. IL-1Ra; HBS-EP+ (0.01 M HEPES pH 7.4, 0.15 M NaCl, 3 mM EDTA, 0.005% P20); 25 °C; multicycle kinetics, 1:1 binding model
Conditions: both partners purified

B1: Aspergillus oryzae-expressed IL-1Ra (interleukin-1 receptor antagonist) (ligand)
chain: not shown
modifications: N-glycosylated
notes: methionine residue inserted at the N-terminus, similar to Anakinra; also called Asp; IL-1Ra; A. oryzae-expressed IL-1Ra
Kd: 2.06 nM | koff: 0.00019 s⁻¹ | kon: 93000 M⁻¹ s⁻¹

B2: Anakinra (Kineret), E. coli-expressed IL-1Ra (ligand)
chain: not shown
notes: methionine residue added to the amino-terminal side; interleukin-1 receptor antagonist (IL-1Ra), non-glycosylated; Not the E. coli IL-1Ra donated by Dr. Cem Albayrak, which was used only in the stability studies; also called E. coli IL-1Ra (Anakinra); source: expressed in E. coli; Anakinra (Kineret) provided by Prof; Dr. Ahmet Gul (Istanbul University)
Kd: 0.0346 nM | koff: 0.00014 s⁻¹ | kon: 4.25e+06 M⁻¹ s⁻¹
